# Data reported in PubChem BioAssay AID686979 (National Center for Advancing Translational Sciences (NCATS), 2013).
# Where “and” joins values, the source holds several entries; their conditions need not be identical. Equal values may be shown once. Screen size: about 420,000 compounds; about 50,000 (12%) were called active. Inconclusive results, whose numbers are uncertain, are shown with a selection of clear calls. The call rests on the fitted dose curve; in most records, active means well fitted inhibition curve with a large enough effect; inconclusive means small, poorly fitted or top-dose-only effect; inactive means flat fitted curve, though single readings scatter. Potencies of inconclusive entries are doubtful fits and often do not repeat.
# Experiment: qHTS for Inhibitors of human tyrosyl-DNA phosphodiesterase 1 (TDP1): qHTS in cells in presence of CPT; further: nearly all actives have a fitted effect of over 55% in size
# Conditions: chicken DT40 Tdp1-/-;hTDP1 cells + 20 nM CPT, ATP luminescence, 48 h; activity change, negative = growth inhibition: at 46.2 µM (top of the series) unless noted
# Outline: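 Chicken DT40 Tdp1-/- cells complemented with human TDP1, 400 cells/well, exposed to compounds plus 20 nM camptothecin for at least 48 h at 37 C; viability read as ATP content by CellTiter-Glo luminescence.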
# On the % scale 0 is the no-effect control and ±100 the full control effect; potency means the concentration at half of the fitted maximal effect; tags describe the fitted curve by direction and shape.
Structure (SMILES),Potency,"activity change, negative = growth inhibition"
CN(C)S(=O)(=O)c1cccc(NC(=O)c2ccc(OC(F)(F)F)cc2)c1,"inconclusive: 23.1 µM [inhibitor, single point]",–
CCc1ccc(N2CC(C(=O)Nc3cccc(S(=O)(=O)N4CCCC4)c3)CC2=O)cc1 (stereo unspecified),"inconclusive: 29.1 µM [inhibitor, single point]",–
C[C@H](NC(=O)c1nc[nH]c1C(=O)NCc1ccc(CNC(=O)OC(C)(C)C)cc1)c1ccccc1,"inconclusive: 20.6 µM [inhibitor, single point]",–
Cc1ccc(Cn2nc3c(cc2=O)CCc2ccccc2-3)cc1,"inconclusive: 20.6 µM [inhibitor, single point]",–
O=C(Nc1ccc(OC(F)(F)F)cc1)c1cc(S(=O)(=O)N2CCCCC2)ccc1N1CCOCC1,"inconclusive: 29.1 µM [inhibitor, single point]",–
CCc1ccc2oc(C(=O)Nc3cccc(Cl)c3C)cc(=O)c2c1,"inconclusive: 32.6 µM [inhibitor, single point]",–
CC(C)CN(CC(C)C)c1ccc(/C=C/c2nc3ccccc3s2)cc1,active: 5.01 µM,–
COc1ccc(NC(=O)CCCN2C(=O)C(c3ccccc3)Oc3cccnc32)c(OC)c1 (stereo unspecified),active: 18.4 µM,–
O=C(COc1ccccc1F)NC1CC1,–,inactive: -4.51%
CCc1ccc(CNC(=O)CCCN2C(=O)CCn3nc(-c4cccn4C)cc32)cc1,"inconclusive: 29.1 µM [inhibitor, single point]",–
CC1CN(c2nc3c(c(=O)n(Cc4ccc(Cl)cc4)c(=O)n3C)n2C)CC(C)O1 (stereo unspecified),"inconclusive: 14.6 µM [inhibitor, partial curve]",–
CCOc1ccc(S(=O)(=O)Nc2cccc(C(=O)N3CCN(C(C)=O)CC3)c2)cc1,–,inconclusive: -30.3% [inhibitor]
CSc1ccc(Cl)c(C(=O)OCC(=O)Nc2ccccc2OC(F)F)c1,–,inactive: -10.7%
CCN(CC)S(=O)(=O)c1ccc(OC(C)C)c(NC(=O)C2=COCCO2)c1,"inconclusive: 16.4 µM [inhibitor, single point]",–
CCC1(C)CC2(CCCN(CCC(=O)c3ccccc3)C2)CCO1 (stereo unspecified),active: 3.66 µM,–
COc1cc(-c2nnc(SCCOc3ccc(Cl)cc3)o2)cc(OC)c1OC,"inconclusive: 20.6 µM [inhibitor, partial curve, poor fit]",–
Cc1ccc(C(C(=O)NC(C)(C)C)N(Cc2ccco2)C(=O)Cn2nnc(-c3cccs3)n2)cc1 (stereo unspecified),"inconclusive: 16.4 µM [inhibitor, single point]",–
Cc1ccc(NC(=O)CC(=O)c2ccc([N+](=O)[O-])cc2)cc1S(=O)(=O)Nc1cccc(Cl)c1,–,inactive: -29.3%
COc1ccc(N2CCC(CNC(=S)Nc3cc(C)ccc3C)C2)cc1 (stereo unspecified),active: 16.4 µM,–
COc1ccc(N2CCN(C(=O)c3ccc(CNS(=O)(=O)c4cccc(OC)c4)cc3)CC2)cc1,active: 9.2 µM,–
S=C(NCc1ccccc1)NCc1cccc(CNC(=S)NCc2ccccc2)c1,"inconclusive: 29.1 µM [inhibitor, single point]",–
CC(C)CNC(=S)N1CCC(C(=O)c2ccc(Cl)cc2)CC1,active: 10.3 µM,–
Cc1ccc(NC2CCCN(C(=O)c3ccccn3)C2)cc1C (stereo unspecified),–,inactive: -2.28%
Cc1nc2c(C(=O)N3CCN(c4ccccn4)CC3)cnn2c(C)c1Cc1cccc(Cl)c1,"inconclusive: 23.1 µM [inhibitor, single point]",–

Structure (SMILES),Potency,"activity change, negative = growth inhibition"
CCN(CC)C(=O)Cn1ccc(NC(C)=O)nc1=O,–,inactive: 4.16%
CCOc1ccc(OCC)c(NC(=O)CN2CCN(c3cccc(C)c3)CC2)c1,active: 23.1 µM,–
O=C(CSc1nc2ccccc2[nH]1)Nc1ccc(F)cc1,–,inactive: -11.7%
CCN(CC(=O)Nc1ccccc1OC)CC(=O)Nc1ccccc1C(F)(F)F,"inconclusive: 29.1 µM [inhibitor, single point]",–
C=CCN1c2ccccc2C(=O)CS1(=O)=O,inactive,–
O=C1CC(c2ccco2)Cc2[nH]c(=O)c(C(=O)Nc3ccccc3)cc21 (stereo unspecified),"inconclusive: 22.4 µM [inhibitor, single point]",–
Cc1cc(=O)[nH]c(N/N=C/c2ccccn2)n1,active: 3.66 µM,–
O=C1c2ccccc2C(=O)N1CCC#C/C=C1\c2ccccc2C(=O)N1c1ccccc1,"inconclusive: 10.3 µM [inhibitor, partial curve]",–
COCc1nn2cc(-c3ccc(C)cc3)nc2s1,–,inactive: -23.6%
Cc1cccn2c(=O)c3cc(C(=O)NC4CCCC4)sc3nc12,"inconclusive: 9.2 µM [inhibitor, partial curve, poor fit]",–
O=C(NCC1CCCO1)c1ccccc1OCc1ccc(Cl)cc1 (stereo unspecified),"inconclusive: 20.6 µM [inhibitor, single point]",–
O=C1c2ccsc2SCCN1Cc1c(Cl)cccc1Cl,–,inactive: -11.9%
O=c1oc2ccccc2n1Cn1c(=O)oc2ccccc21,–,inactive: -2.44%
CC(=O)c1ccc(N2CCN(C(=O)C3CCN(S(=O)(=O)c4c(C)noc4/C=C/c4ccc(C)cc4)CC3)CC2)cc1,active: 6.51 µM,–
Cc1cc(C(=O)O)ccc1-n1c(C)cc(C=C2C(=O)c3ccccc3C2=O)c1C,"inconclusive: 20.6 µM [inhibitor, single point]",–
O=c1c(-c2ccc(Cl)cc2)nc2cnc(N3CCNCC3)nc2n1Cc1cccs1,active: 6.51 µM,–
CCO[C@H]1OC(C(=O)NC2CC2)=C[C@@H](c2ccc(C(F)(F)F)cc2)[C@@H]1CCCO,"inconclusive: 9.2 µM [inhibitor, partial curve]",–
COc1ccc(C(=O)NC2CCCc3ccccc32)cc1[N+](=O)[O-] (stereo unspecified),active: 5.17 µM,–
CCN1C(=O)[C@H]2[C@H]3CN=C(SCc4ccc(Cl)cc4)N3[C@@](C)(C(=O)OC)[C@H]2C1=O,"inconclusive: 29.1 µM [inhibitor, single point]",–
COCc1nnc(NC(=O)CSCc2ccccc2)s1,–,inactive: -0.966%
Cc1ccccc1-c1nc(CN2CCC(C(=O)NCCCN3CCCC3)CC2)c(C)o1,"inconclusive: 29.1 µM [inhibitor, single point]",–
COc1ccccc1OCC(=O)NCCCn1ccnc1,–,inactive: -1.49%
CC1(c2nnnn2Cc2ccccc2)CCC(=O)N1CC1CCCCC1 (stereo unspecified),"inconclusive: 29.1 µM [inhibitor, single point]",–
COC(=O)c1ccc(Cn2cnc3nc4c(cc3c2=O)CCCC4)cc1,–,inactive: 3.24%

Structure (SMILES),Potency,"activity change, negative = growth inhibition"
CC(=O)Nc1ccc(NC(=O)Cc2ccc(S(=O)(=O)N3CCCCC3)s2)cc1,–,inconclusive: -34.9% [inhibitor]
Cc1cc(Nc2ccccc2)c2c([N+](=O)[O-])ccc(C)c2n1,"inconclusive: 23.1 µM [inhibitor, single point]",–
Cc1ccc2[nH]c(C)c(/C=C/c3cc[n+](C)cc3)c2c1,active: 3.26 µM,–
C=CCn1c(SCC(=O)Nc2cc(C)c(Cl)cc2OC)nnc1-c1ccco1,–,inactive: -14.7%
Cc1ccc2nc(-c3cccs3)c(Nc3ccccc3)n2c1,"inconclusive: 7.94 µM [inhibitor, partial curve, poor fit]",–
CCOC(=O)c1ccc(S(=O)(=O)N2CCN(C3CCCC3)CC2)cc1,"inconclusive: 29.1 µM [inhibitor, single point]",–
Cc1ccc(N(CC(=O)Nc2ccccc2-c2ccccc2)S(=O)(=O)c2ccccc2)c(C)c1,"inconclusive: 18.4 µM [inhibitor, single point]",–
O=C(NCCc1cccnc1)c1cc(COc2ccc(F)cc2F)on1,"inconclusive: 25.9 µM [inhibitor, single point]",–
CC1CC(C)CN(CCOCCSc2ccccc2)C1 (stereo unspecified),"inconclusive: 29.1 µM [inhibitor, single point]",–
CC(=O)n1cc([C@@H]2C=C(C(=O)Nc3ccccc3)O[C@H](OCCCCO)C2)c2ccccc21,"inconclusive: 23.1 µM [inhibitor, single point]",–
S=C(Nc1ccc(Cl)cc1Cl)Nc1ccccc1Oc1ccccc1,–,inactive: -22.7%
O=C(NCCN1CCN(c2ccccc2Cl)CC1)Nc1ccccc1,–,inactive: -11.4%
CCN(CC)C(=O)[C@H]1C[C@H](CC(=O)NCCN2CCOCC2)C(=O)N2CCc3c([nH]c4cc(-c5ccco5)ccc34)[C@]12C,active: 20.6 µM,–
Cc1ccc(CN2CC(C(=O)NC3CCCC(C)C3C)CC2=O)cc1 (stereo unspecified),active: 18.4 µM,–
Cc1cccc(NC(=O)C2CCCN2C(=O)Oc2ccccc2)c1C (stereo unspecified),"inconclusive: 0.651 µM [inhibitor, full curve, poor fit]",–
CC(C)c1ccc(OCC(O)CN2CCN(c3ccccc3)CC2)cc1 (stereo unspecified),"inconclusive: 29.1 µM [inhibitor, single point] and inconclusive: 16.4 µM [inhibitor, single point]",–
COc1ccc(CCC(=O)NCC(c2ccco2)N2CCc3ccccc32)cc1 (stereo unspecified),active: 18.4 µM,–
O=C(CCc1ccc(F)c(F)c1)NC1CCCN(Cc2ccc(Cl)cc2)C1 (stereo unspecified),"inconclusive: 25.9 µM [inhibitor, single point]",–
CCOC(=O)N1CCC(NC(=O)C2CCN(S(=O)(=O)N3CCC(C)CC3)CC2)CC1,–,inactive: -19%
Clc1ccc(OCc2nn3c(C4CCCCC4)nnc3s2)cc1,active: 20.6 µM,–
CC(=NNC(=O)c1cc(C)nc2ccccc12)c1ccc(N2CCOCC2)cc1,"inconclusive: 29.1 µM [inhibitor, single point]",–
CCOC(=O)C(C)n1cnc2c(cnn2-c2ccc(Cl)cc2)c1=O (stereo unspecified),"inconclusive: 18.4 µM [inhibitor, single point]",–
CCN1C(=O)[C@H]2[C@@H](c3ccc(-c4ccc(F)cc4)cc3)N3CCCC[C@@]3(C(=O)OC)[C@H]2C1=O,"inconclusive: 29.1 µM [inhibitor, single point]",–
